Numbering of substitutions follows the chain as printed. Recombinant human monoclonal antibodies (heavy:light variable regions). ELISA EC50 on the named antigen, from 10 µg/ml down; IC50 / IC90 against spike pseudovirus on 293T-ACE2 cells, 48 h; lower = stronger. Calls: IC50 above 1,000 ng/ml = non-neutralizing; EC50 above 1,000 ng/ml = non-binder. The source prints 1000 for neutralization that was not reached; it is given as >1000 ng/ml. Only binders of the Wuhan-Hu-1 domain have neutralization values.
B1: B1056 (protein)
chain 1: QVQLVQSGAEVKKPGASVKVSCKASGYTFTSYDIDWVRQATGQGLEWMGWMNPNSGNTGYAQKFQGRVTMTRNTSISTAYMELSSLRSEDTAVYYCARAIWFGELPSAWGQGTLVTVSS
chain 2: not shown
B2: B2101 (protein)
chain 1: QVQLQESGPGLVKPSETLSVTCAVSGYSISSSYYWGWIRQSPGRGLEWIGSIYHSGTTYHNPSVKSRLTISVDTPTNQFSLTLRSVTAADTAMYYCASNSGQVVIGAFDIWGQGTMVTVSS
chain 2: EIVLTQSPGTLSLSPGERATLSCRASQSVRNSYLAWYQQKPGQAPRLLIYGASRRATDIPDRFSGSGSGTDFTLTISRLEPEDFAVYYCQHYGDSPLTFGGGTKVEIK
B3: B621 (protein)
chain 1: QVQLQESGPGLARPSETLSLTCGVTGYSISVGYYWGWFRQPPGKGLEWVGSMYHSGPAYYNSSLKSRVSISIQASKNRFSLSLSSVTAADSAVYFCAASGVGRAGALSYDAWGQGTLVLVSS
chain 2: EIVLTQSPGTLSLSPGERATLSCRASQSVSRTYLAWYQQKPGQAPRLLIYGVSSRATGIPDRFSGSGSGTDFTLTISRLEPEDFAVYYCQQYRTFGQGTKVEIK
B4: B625 (protein)
chain 1: QLQLQESGPGLVKPSETLSLTCTVSGGSISSSSFYWGWIRQPPGKGLEWIGSIYYSGSTYYNPSLKSRVTISVDTSKNQFSLRLSSVSAADTAVYYCARHGPRPHYDFLTGDSDYYYYGLDVWGQGTTVTVSS
chain 2: DIQMTQSPSSLSASVGDRVTITCRASHNIRSYLNWYQQKPGKAPNLLIYVATSLQSGVPSRFSGSGSGTDFTLTISSLQPEDFATYYCQQSFTTPRTFGQGTRVEIK
B5: B630 (protein)
chain 1: EVQLVESGGGLVQPGGSLRLSCTASGFTFSRYDMHWVRQPTGKGLEWVSAIGTSGDRYYPDSVKGRFTISREDAKNSLYLQMNNLRAGDTAVYYCARGDSTTSLLRHYYYMDVWGRGTTVTVSS
chain 2: QSVLTQPPSVSGAPGQRVTISCTGSSSNIGAGYDVHWYQQLPGTAPKLLIYGNSNRPSGVPDRFSGSKSGTSASLAITGLQAEDEADYYCQSYDSSLSDNWVFGGGTKLTVL
B6: B1080 (protein)
chain 1: EVQLVESGRGLVQPGRSLRLSCAASGFTFDDYAMHWVRQAPGKGLEWVSGISWNSGSIGYVDSVKGRFTISRDNAKNTLYLQMNSLRAEDTALYYCAKGTIAVPLRECSLDYWGQGTLVTVSS
chain 2: DIQMTQSPSSLSTSVGDRVTITCRASQSIYGFLNWYQQRPGKAPKLLIYAASSLQSGVPSRFSGSGSGTDFTLTISSLQPEDFATYYCQQSYITPYTFGQGTKLEIK
B7: B2105 (protein)
chain 1: B2 chain 1 with H60Y, P75S
chain 2: DIQMTQSPSTLSASVGDRVTITCRASQSINSWLAWYQQKPGKAPELLIYDASSLQSGVPSRFSGSGSETEFTLTISSLQPDDFATYYCQQYKTYSWTFGQGTKVEIK
B8: B1099 (protein)
chain 1: EVQLVESGGGLVQPGGSLRLSCTASGFTFDDYALQWVRQAPGKGLEWISGINWNSGSRGYANSVKGRFTISRDNAKNSLYLQMNSLRADDTAFYYCAKDRNRRGLTHDFEYFQHWGQGALVTVSS
chain 2: EIVMTQSPATLSVSPGERATLSCRASQTVSSNLAWYQQKPGQGPRLLIHGATTRATGIPARFSGSGSGTEFTLTISSLQSEDFAIYYCQQYKAWPRTFGQGTKVEIK
B9: B2107 (protein)
chain 1: B2 chain 1 with H60Y, P75S
chain 2: EIVLTQSPGTLSLSPGERATLSCRASLSLSSTYLAWYQQRPGQAPRLLIYGASSRATGIPDRFSGSGSGTDFTLTISRLEPEDFAVYYCQQYGRSPWTFGQGTKVEIK
B10: B671 (protein)
chain 1: EVQLLESGGGLVQPGGSLTLSCAVSGFTFTNYAVAWVRQAPGKGPEWVSTIKGGGDVTWYVASVRGRFTISRDNSMNTAFLQMDSLRAEDTAIYYCARDGDYPTDRFDFWGQGTLVVVSS
chain 2: QSVLTQPPSVSGAPGQRVTISCTGSSSNIGAGYAVHWYQQLPGTAPKLLIYSNNNRPSGVPDRFSGSKSGTSASLAITGLLAEDEADYFCQSYDSSLSGSVFGTGTKVTVL
B11: B675 (protein)
chain 1: EVQLVQSGTEVKKPGESLKISCQGSGYRFTSYWIAWVRQMPGKGLEWMGIIYPGDSETRYSPSFQGQVTISVDKSISTAYLHWSSMKASDTAMYYCARSMTTNYFDLCGQG
chain 2: QSVLTQPASVSGSPGQSITIFCTGTSSDVGGYNYVSWYQQHPGKAPKLMIYDVSNRPSGVSNRFSGSKSGNTASLTISGLQAEDEADYYCSSYTSSSTLVVFGGGTKLTVL
B12: B679 (protein)
chain 1: EVQLVESGGGLVQPGRSLRLSCAASGFTFEDYAMHWVRQAPGKGLEWVSGISWNGGVIDYADSVKGRFIISRDNAKNSLYLQMRRLTAEDTALYYCAKDIDRGNGYDFPLDYWGQGTLVTVSS
chain 2: QSVLTQPPSASGTPGQAVTISCSGSSSNIGSNTVNWYQQLPGTAPKLLIYNNHQRPSGVPDRFSGSKSGTSASLAISGLQSEDEANFYCAAWDDRLNGVVFGGGTKLTVL
B13: B2109 (protein)
chain 1: B2 chain 1 with K13R, H60Y, P75S
chain 2: EIVLTQSPATLSLSPGERATLSCRASQSLSTYLAWYQQKPGLAPRLLIYDTSTRATGIPDRFSGSGSETDFTLTISRLDPEDFAVYYCQQYGSSPRTFGQGTKLEIK
B14: B686 (protein)
chain 1: QVQLVESGGGVVQPGRSLRLSCAASGISFSTSVMHWVRQAPGKGLEWVTVISYDGVNNYYADSVKGRFTISRDNSKNTLYLQMNSLRDEDTAVYYCAKSHPIAAGTLFWNAFDIWGQGTMVTVSS
chain 2: AIQLTQSPSSLSASVGDRVTITCRASQGISSALAWYQQKPGKAPKLLIYDASSLESGVPSRFSGSGSGTDFTLTISSLQPEDSATYYCQQFNTYLTFGGGTKVEIK
B15: B2070 (protein)
chain 1: QVQLVQSGAEVKKPGSSVKVSCKASGGTFSSNVISWVRQAPGQGLEWMGAIIPIFGPANYAQKFQDRVTITADESTSTAYMELSSLRSEDTAVYYCARRSQSSSFGPRYYGMDVWGQGTTVTVSS
chain 2: DIQMTQSPSSLSASVGDRVTITCQASEDINKYLNWYQQKPGKAPKLLIYDASNLETGVPSRFSGSGSGTDFTFTISSLQPEDIATYYCQQYDNLPRTFGQGTKLEIK
B16: B2074 (protein)
chain 1: EVQLLESGGGLVQPGGSLRLSCAASGFTFSNYAMNWVRQAPGKGLEWVSAIDGSVGSTYYADSVKGRFTISRDNSKNTLYLQMNSLRADDTAVYYCAKRRGYYDSIHYRPGPEYFQNWGQGTLVTVSS
chain 2: DIQLTQSPSSLSASVGDRVTITCRASQSISRYLNWYQQKPGKAPKLLIYAASSLQSGVPSRFSGSGSGTNFTLTISSLQPEDFATYYCQQSYSTPPITFGQGTRLEIK
B17: B2077 (protein)
chain 1: QVQLQESGPGLVKPSETLSLTCTVSVGSISSYYWSWIRQPPGKGLEWIGYIYYSGSTNYNPSLKSRVTISVDTSKNQFSLKLSSVTAADTAVYYCARHVLVPPAALGLTPHTYFDTWGQGTLVTVSS
chain 2: B5 chain 2 with Y33C, Q40H, S54T, S58P, S95T, D99G, N100E, W101V

What follows are binders tested against SARS-CoV-2 Delta (B.1.617.2) spike RBD (assay: ELISA binding EC50; higher = weaker binding; ELISA of recombinant human antibody on coated antigen, from 10 µg/ml in fourfold dilutions; four-parameter fit.).

Binder	ELISA binding EC50
B1	> 1000 ng/mL
B2	> 1000 ng/mL
B3	> 1000 ng/mL
B4	> 1000 ng/mL
B5	> 1000 ng/mL
B6	> 1000 ng/mL
B7	> 1000 ng/mL
B8	> 1000 ng/mL
B9	> 1000 ng/mL
B10	> 1000 ng/mL
B11	> 1000 ng/mL
B12	> 1000 ng/mL
B13	> 1000 ng/mL
B14	> 1000 ng/mL
B15	> 1000 ng/mL
B16	> 1000 ng/mL
B17	> 1000 ng/mL

What follows are binders tested against SARS-CoV-2 Omicron BA.1 spike protein in the same assay as above.

Binder	ELISA binding EC50
B1	> 1000 ng/mL
B2	> 1000 ng/mL
B3	> 1000 ng/mL
B4	> 1000 ng/mL
B5	> 1000 ng/mL
B6	> 1000 ng/mL
B7	> 1000 ng/mL
B8	> 1000 ng/mL
B9	> 1000 ng/mL
B10	> 1000 ng/mL
B11	> 1000 ng/mL
B12	> 1000 ng/mL
B13	> 1000 ng/mL
B14	> 1000 ng/mL
B15	> 1000 ng/mL
B16	> 1000 ng/mL
B17	> 1000 ng/mL

Each binder was assayed against SARS-CoV-2 Wuhan-Hu-1 spike receptor-binding domain in the same assay as above.

Binder	ELISA binding EC50
B1	> 1000 ng/mL
B2	> 1000 ng/mL
B3	> 1000 ng/mL
B4	> 1000 ng/mL
B5	> 1000 ng/mL
B6	> 1000 ng/mL
B7	> 1000 ng/mL
B8	> 1000 ng/mL
B9	> 1000 ng/mL
B10	> 1000 ng/mL
B11	> 1000 ng/mL
B12	> 1000 ng/mL
B13	> 1000 ng/mL
B14	> 1000 ng/mL
B15	> 1000 ng/mL
B16	> 1000 ng/mL
B17	> 1000 ng/mL

From the supplement of paper PMC9513381
